# Laboratory results from article PMC6212790.
# The other results are listed elsewhere or left out. At the low end of the ranking the order means little.
# Target: T1, GST-Rok (full length) (UniProt O34857)
# T1 sequence: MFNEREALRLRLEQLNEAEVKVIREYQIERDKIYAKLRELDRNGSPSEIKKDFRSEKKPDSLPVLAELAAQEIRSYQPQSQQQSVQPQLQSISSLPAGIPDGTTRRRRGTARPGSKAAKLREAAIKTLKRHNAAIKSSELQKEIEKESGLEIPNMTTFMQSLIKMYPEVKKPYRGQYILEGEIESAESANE
# Experiment: protein binding microarray;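 further: rank score from −0.5 (least bound) to 0.5 (best bound)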
# Conditions: Rok is a gene silencer of Bacillus subtilis; high values mean tight binding; most listed sequences are background and not binding sites; double strand, one strand shown
row,Sequence,binding signal [E-score]
1,CCAGGACG,-0.199
2,AGAAAGTA,0.335
3,ATGCCAAT,0.0103
4,ACGACCCC,-0.335
5,CCTCTCCG,-0.263
6,AACTGAGC,0.0683
7,AAAATTGT,0.234
8,AGCCGCGG,-0.162
9,CGCTTTAC,-0.19
10,TACAGGTA,0.183
11,AATAACGA,0.237
12,AATGTAGG,0.174
13,ACCGCTCA,-0.00169
14,CTCGTGTA,-0.0219
15,CACATCCA,0.0558
16,AATCAGGT,0.204
17,AAGGTACG,-0.206
18,CCGTTAAA,0.147
19,ATTTCCAA,0.219
20,AAACGTAC,0.153
21,CATCAAGA,-0.132
22,CTTTAAAC,0.0313
23,ATGATATG,0.172
24,CGCAATAC,0.0487

row,Sequence,binding signal [E-score]
1,GAGGGCGC,-0.326
2,CTACAGTA,0.27
3,ATCACGTC,-0.00873
4,ACCGACAT,-0.187
5,GCTAACTA,0.341
6,ACATTGCA,0.0856
7,AGATTCCC,-0.058
8,CGAGCGTC,-0.314
9,TAAGTCTA,0.207
10,CGTCCACA,-0.0421
11,CCCACTTC,-0.152
12,CGAGTGAG,0.0112
13,CCTCAAGG,-0.342
14,ACCTTCAA,-0.196
15,AATCCGCG,-0.0736
16,ATAGAAAA,0.324
17,GAGGGCAC,-0.241
18,ATGGTAAT,0.208
19,GACTGAGC,-0.0481
20,CACGCGTA,0.0489
21,CCACACTC,-0.193
22,ATTGCCAG,0.0373
23,TCGACGCA,-0.0236
24,ATCATGGA,-0.0894

row,Sequence,binding signal [E-score]
1,CGAGGAAA,-0.208
2,TACCCCTA,-0.0499
3,CGTATGGA,0.128
4,AGAGTCAC,-0.0764
5,AGCTCGAA,-0.0766
6,CTTCGTCC,-0.0852
7,GGGAGGGA,-0.238
8,CCAACTCC,-0.184
9,ATAGCACG,0.14
10,CCTGAACC,-0.296
11,AGGCTCAA,-0.262
12,CCAAGTCG,-0.224
13,ATGCACGA,-0.167
14,ATCCCAAA,0.0535
15,TAATGCAA,0.167
16,GTCTTAAC,-0.179
17,CCCGCGCA,-0.303
18,GTGATGTA,0.013
19,ATGCGTTG,-0.062
20,CCGACATA,0.0114
21,ACTATGTC,0.0845
22,CCCCAGCG,-0.305
23,AGTACCTG,0.00392
24,AGTGTAAT,0.188

row,Sequence,binding signal [E-score]
1,TTAAGGAA,-0.128
2,AGTTTGCA,0.159
3,ACCTCTGG,-0.232
4,GTCGGCAA,-0.0858
5,CAATTCAA,0.045
6,GTAGTAAA,0.348
7,AACTGGTC,-0.113
8,TACTTAAA,0.161
9,CGAGAAAA,0.0282
10,ACTTCGCG,-0.0373
11,GCACCTGA,-0.169
12,ACGACCGA,-0.0156
13,GGCGCGAC,-0.107
14,CCCAATGA,-0.304
15,AATTTAAG,0.18
16,AAATCTTG,0.0905
17,CGAACTAC,0.358
18,GGTCCTAC,0.0108
19,GCCAGCAA,-0.00575
20,GCCCGATA,0.0089
21,CAGCGAAA,0.022
22,CAATGGTG,-0.0306
